From the supplement of paper PMC11880418
Structures can show the parent of a compound that is named as a salt. This is one part of the list. The data scatter; read single values as rough.

What was measured:
Assay in all cases: ALDHbr (CSC) cell proportion score relative to DMSO vehicle (ratio to DMSO); breast (SUM159) / gastric (MKN45) / pancreatic (PANC1) / colon cancer lines; ALDHbr cells have high ALDH activity and are rich in cancer stem cells (CSC); higher = more CSC (ALDHbr) cells remaining
Conditions in all cases: 10 µM; 72 h
MKN45 = test system: MKN45
PANC1 = test system: PANC1
SUM159 = test system: SUM159
T84 = test system: T84
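Further: High-content imaging of ALDEFLUOR-stained cells with Hoechst-labelled nuclei in 384-well plates, triplicate wells, scored as Z-score against 0.1% DMSO vehicle, negative meaning fewer ALDHbr cells.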

SMILES	ALDHbr (MKN45)	ALDHbr (PANC1)	ALDHbr (SUM159)	ALDHbr (T84)
CC(=O)OCC1=C(C(=O)O)N2C(=O)[C@@H](N)[C@H]2SC1 [Cephalosporanic acid, 7-amino]	1.03	0.912	1.06	0.915
COc1ccc2c(c1)[C@]13CCCC[C@@H]1[C@H](C2)N(C)CC3 [Dextromethorphan hydrobromide monohydrate]	1.36	1.05	0.752	0.984
CC(=O)O[C@H]1C[C@@H]2CC[C@@H]3[C@H](CC[C@@]4(C)[C@H]3C[C@H]([N+]3(C)CCCCC3)[C@@H]4OC(C)=O)[C@@]2(C)C[C@@H]1[N+]1(C)CCCCC1 [Pancuronium bromide]	1.1	0.894	0.934	1.04
C[N+]12CCC(CC1)C(OC(=O)C(O)(c1ccccc1)c1ccccc1)C2 (centres undefined) [Clidinium bromide]	0.805	1.07	1.06	0.954
CN1CCN(C(=O)O[C@H]2c3nccnc3C(=O)N2c2ccc(Cl)cn2)CC1 [Eszopiclone]	0.871	0.946	1.02	1.05
C[C@]12CCC(=O)C(O)=C1CC[C@@H]1[C@@H]2CC[C@]2(C)C(=O)CC[C@@H]12 [Formestane]	0.941	0.963	0.983	0.88
C[N+](C)(C)CCCCCCCCCC[N+](C)(C)C [Decamethonium bromide]	0.954	1.12	0.975	1.11
CCC1(CC)C(=O)C=CNC1=O [Pyrithyldione]	1.01	1.01	1.03	1.19
NC(=O)OCCCc1ccccc1 [Phenprobamate]	1.15	0.926	1.16	1.07
NCC(O)c1ccc(O)cc1 (racemic) [(+,-)-Octopamine hydrochloride]	0.966	0.854	1.48	0.951
COc1ccc(CN2CCNCC2)c(OC)c1OC [Trimetazidine dihydrochloride]	0.922	0.915	0.884	0.938
Cc1cccc(C)c1NC1=NCCCS1 [Xylazine]	1.06	0.896	0.995	1.16
CCC1(C)CC(=O)NC(=O)C1 [Bemegride]	0.88	0.967	1.31	0.972
C[C@]12Cc3c[nH]nc3C[C@@H]1CC[C@@H]1[C@@H]2CC[C@@]2(C)[C@H]1CC[C@]2(C)O [Stanozolol]	0.828	0.884	1.23	0.818
CC(C)(N)Cc1ccccc1 [Phentermine hydrochloride]	1.25	1.01	1.08	1.13
CC(N)C(O)c1ccccc1 (centres undefined) [Phenylpropanolamine hydrochloride]	1.15	0.944	1.99	0.865
